According to publication PMC12136788:
The list shows a part of the results.

T1: UNK ZnF1-3 (human, UniProt Q9C0B0 31-174)
T1 sequence: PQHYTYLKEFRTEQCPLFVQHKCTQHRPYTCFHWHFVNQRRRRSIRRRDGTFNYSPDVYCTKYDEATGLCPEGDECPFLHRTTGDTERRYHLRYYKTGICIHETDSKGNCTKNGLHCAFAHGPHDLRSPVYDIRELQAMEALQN

B1: chrX:91780989:91780990:-_ENSMUSG00000025151_ENSMUST00000026142|mus_hu|FALSE|FALSE (ssRNA)
RNA: GGGAGUUCUACAGUCCGACGAUCCUCUAGAUAGCUGUGUUUAGAAGGAAUCUGAGGCUUCAGCCUCACACAGGGGAAAGACUACUGCGAUUGAUAGCAAUAUCCAACAUCUCACUCAACCCAGAAGAAACCAAUGGCACCAAACAACAGAGGAUUGAGCAUCA
B2: 146889473_146889593_86_3pUTR_ENSG00000113657_ENST00000343218|human|control|control (ssRNA)
RNA: GGGAGUUCUACAGUCCGACGAUCGCAGCCGCCGGCAGCGUGCGCCGAGCCACAGUGACUGUGGCGGGAGGAGGCGCCUGAGCCUUCGCGCCAGAGGCGGCAGUGCUGCUCCGAUUCCUGCUUGUCCCUAGCGAGCCAGCGAGCCAACAGAGGAUUGAGCAUCA
B3: chr1:66480114:66480115:+_ENSMUSG00000015222_ENSMUST00000024639|mus_hu|mus_mus_mus_hu_True|1_48 (ssRNA)
RNA: GGGAGUUCUACAGUCCGACGAUCUGGCCUGUGGCGGAUGUUCUUCAGAGAGCCACAUUUGGAUGUCACAUGGCUUAGGUCUAUUUUCUUAGUAACAAUUUGUACCUGCCCCCCUUUAGGCUGGUAUUUGAUGUUGUCAGUUGACAACAGAGGAUUGAGCAUCA
B4: chr15:93570553:93570554:+_ENSG00000173575_ENST00000394196|hu_hu|FALSE|FALSE (ssRNA)
RNA: GGGAGUUCUACAGUCCGACGAUCUCUAAGGCCAUAGUGUAUCAUGUCAACCCUUGUUCACGUGCAGGUUUUAGGUGAUGCUAACUCCCUCUUUCUCAACCUGUUAUUUCUACCAACAAUGAAAUCUUUCAAAGCCAGACUCCACAACAGAGGAUUGAGCAUCA
B5: chr4:39507275:39507276:-_ENSG00000109814_ENST00000316423|hu_hu|FALSE|FALSE (ssRNA)
RNA: GGGAGUUCUACAGUCCGACGAUCACUAGAAGAUUCUCUUGUAUCACCAGUGUCCUUUUUGAAUGCAAAUCCCAAAAUAGCUAUCUUCUUAUCAGUUACUGUAUUAAACAGACUAUCUAUGAUCCGGGAAGCAAACCUCCUCCUCAACAGAGGAUUGAGCAUCA
B6: 47880682_47887520_1947_CDS_ENSG00000170448_ENST00000381538|human|control|control (ssRNA)
RNA: GGGAGUUCUACAGUCCGACGAUCCUCAUGUUUCCCAAGACAUUCCAUAGGAAUAGGAACUUGACAUGGAGGACACGGUAAUGCAGUCUGAAUAAAUGCUGGCUCAGAAGGCUGUUCCCAAGGGCCUGUAGGCUGGUGCCUGCCCAACAGAGGAUUGAGCAUCA
B7: 51247755_51250570_940_CDS_ENSMUSG00000063273_ENSMUST00000029303|mouse|control|control (ssRNA)
RNA: GGGAGUUCUACAGUCCGACGAUCCCCUUUGGUUUCUUCAACAGCAAGUUUAUCACAAAUCUGCUUUUCAUAGGUACAAAGAUGUUCCAGGGCUUCUCUAUAAAGACCUGCUUCCCGAAGAACUUGAUUCUGAUAUAAGAGGAGCAACAGAGGAUUGAGCAUCA
B8: chr1:149875238:149875239:-_ENSG00000159164_ENST00000369146|hu_mus|FALSE|FALSE (ssRNA)
RNA: GGGAGUUCUACAGUCCGACGAUCUGUGGUUAGUUUAACUUCCUUUUAACUUUUUUUUUUUUUAACAUUUUACAAACAGCUAAAAACUACAACACGUCACAGCUACGUUGGGAGUGGAGAGAGAGUACCAAAGAAAGCAGCCACCAACAGAGGAUUGAGCAUCA
B9: chr5:123980014:123980015:-_ENSG00000168916_ENST00000504926|hu_hu|FALSE|FALSE (ssRNA)
RNA: GGGAGUUCUACAGUCCGACGAUCGGGAGAAACAGCCCGGUAUGCAGGAUGGCUGGGGUCGUACAUCUGUGGGUAAGGAUAAGCAUGCAAGUACUGUAUGUAUGACUGAUGCUGACUCAUGGGUGAGGAGACAGCCACUCUUGUCAACAGAGGAUUGAGCAUCA
B10: chr12:7078717:7078718:-_ENSG00000215021_ENST00000535923|hu_mus|FALSE|FALSE (ssRNA)
RNA: GGGAGUUCUACAGUCCGACGAUCUUUGGAGCCUGUGGGGGAGGAGAUUUUUCGAGGUCUGGCCCGAAUGUCAUAGAUGAUGGGGUACUGGAACCAGGGGAUCCUGAAGUGAAGGCCUUCGGCCAGGAUCGUGUCCUGCUGCACCAACAGAGGAUUGAGCAUCA
B11: chr3:41277855:41277856:+_ENSG00000168036_ENST00000349496|hu_mus|FALSE|FALSE (ssRNA)
RNA: GGGAGUUCUACAGUCCGACGAUCUUCAAUGGCCUCUGCAGCCUCCUUGUCCUGAGCAAGUUCACAGAGGACCCCUGCAGCUACUCUUUGGAUAUUUUCAAUGGGAGAAUAAAGCAACUGCACAAACAAUGGAAUGGUAUUGAGCAACAGAGGAUUGAGCAUCA
B12: chr10:24872911:24872912:-_ENSG00000107863_ENST00000396432|hu_mus|motif|central (ssRNA)
RNA: GGGAGUUCUACAGUCCGACGAUCCUGGUAAAUGGAAGGAAACUUGUUACUGAUAAAAUGCAUUCAUUUAUUCAAUUUUCGGAUUUUAACAAUAUGGCACCCUAAAAAUCAAAUGUACUUUUAUCAUGAGGCACUUUUGUUAGUCAACAGAGGAUUGAGCAUCA
B13: chr13:97419175:97419176:-_ENSMUSG00000021670_ENSMUST00000022176|mus_hu|motif|central (ssRNA)
RNA: GGGAGUUCUACAGUCCGACGAUCGCUUUACGUACAACAGAAAAGGUAAAUCUUCCACAAUAACAAUGCAGACACAAUCACGGAGAGGCUCUCCAUGCUGCCAUGGUUUCCUGGAAUGUUUUUCAGAGUCCAUCUUCUACAAGACAACAGAGGAUUGAGCAUCA
B14: 156755749_156756598_1866_CDS_ENSG00000146909_ENST00000275820|human|control|control (ssRNA)
RNA: GGGAGUUCUACAGUCCGACGAUCCGUCCCCACAAGCUGCUUCUGCAGGUGCGUAUGGUGACUGUUGUCGAUCAUCGGGGCCCCACUCCAGGCGGACCCCACAAUCCACCAGCGACCCGUCUGCUCCGCACUCAAGACACUGUCCAACAGAGGAUUGAGCAUCA
B15: chr7:80571614:80571615:-_ENSMUSG00000078671_ENSMUST00000169922|mus_hu|FALSE|FALSE (ssRNA)
RNA: GGGAGUUCUACAGUCCGACGAUCAUAUACAAGAAUCAAAAGUACAGCAGUUUUACAAUGUAGGAAAAUUUAAUACAUACUAUAUAAACAACAUUAUUUACAUCAGAAAUCACUAGGACAGUGGCAUUUUUCACAAAUAUAAAUCAACAGAGGAUUGAGCAUCA
B16: chr4:147379129:147379130:-_ENSMUSG00000029016_ENSMUST00000137724|mus_hu|FALSE|FALSE (ssRNA)
RNA: GGGAGUUCUACAGUCCGACGAUCCCGUCCAGUCAGUUUAGGGGAGGGAGGUAUUUGCAUUCUACUGUCUAUCUCUGGGCUAAACUGAUGGGAACAAAAUAUCUGGUGACUUAAACACAACAGGAUGUGCACGAGGGAUGAAUUCAACAGAGGAUUGAGCAUCA
B17: chr11:121174221:121174222:+_ENSG00000109929_ENST00000392789|hu_hu|motif|central (ssRNA)
RNA: GGGAGUUCUACAGUCCGACGAUCUGUUGCACAGAAGAAAUAAAGGAUGUAAGCACCAACAUUUGUUACAAUCAGAAGACGGAUAGCUUGUCGGAAGAUGUCAUCUUCUGGCCAUGUGGCUGGAUACACGUAUGGUGUAAAAAACAACAGAGGAUUGAGCAUCA
B18: chr2:192225418:192225419:+_ENSG00000128641_ENST00000304164|hu_hu|FALSE|FALSE (ssRNA)
RNA: GGGAGUUCUACAGUCCGACGAUCAUAGAACACAUGGAAGUUUCUUUCACCUCUUGGCUGUUUAACAACCCGAGAUUUCUCUAAAAGAUAGUUACUUAUUACUCCUCCUAGUGGAUCGCCUUUAAAGUCAAAUUCAAUAUCCAUCAACAGAGGAUUGAGCAUCA
B19: chr2:216981417:216981418:+_ENSG00000079246_ENST00000392132|hu_hu|hu_hu_hu_mus_True|28_98 (ssRNA)
RNA: GGGAGUUCUACAGUCCGACGAUCCUGAUACUGGUCCCCACCAGAAAGGGCAUUAUCAGUGCCAUCUGUGCCAUAGAGGACUAACGCAAUCUCAUCUUUGCUCUCCGCAAACACCUGUCGUUGGACAAACAUAGUCAUCACUUUCAACAGAGGAUUGAGCAUCA
B20: chr2:198351390:198351391:-_ENSG00000144381_ENST00000345042|hu_hu|hu_hu_hu_mus_False|28_48 (ssRNA)
RNA: GGGAGUUCUACAGUCCGACGAUCUCAUUCCCACCCUCCACAGAAAGGCUGCUUCUGAACUCUCAUGUGGUGACACAGCGCUACAGUCCUGAUUUUAACAGAACAGUAGUAAAAAUGCAGUGAUUUAAGUUGAAAGCAGGACACCAACAGAGGAUUGAGCAUCA
B21: 141914647_141914767_731_3pUTR_ENSMUSG00000041688_ENSMUST00000112835|mouse|control|control (ssRNA)
RNA: GGGAGUUCUACAGUCCGACGAUCACCAUAGCAAAAGGGUCAGCUGGCAUGGGCUGAUAAGAAGCAGACUGCUGAGCCCGAGGCAUAGCUGAGUAGGCUUCUCCUGGCUGCUGCUGCGCUGAAGUCAGGCUGGCCUGGGCGUGACAACAGAGGAUUGAGCAUCA
B22: chrX:71549762:71549763:+_ENSMUSG00000019087_ENSMUST00000019231|mus_mus|mus_mus_mus_hu_False|8_88 (ssRNA)
RNA: GGGAGUUCUACAGUCCGACGAUCAAACCCGUGUACUUCUUAUUGUUACAUCACCCCCACCAGAAAACGAUAACGACAGCCAAGCAGGACAGACAGUUAAGUAGUACUUCCACACUCCCAAACUCAGAGGAACCUCAAACCUUACAACAGAGGAUUGAGCAUCA

Each binder was assayed against T1, UNK ZnF1-3 (assay: nsRBNS (natural sequence RNA bind-n-seq); RBNS binding buffer (assumed for nsRBNS): 25 mM Tris pH 7.5, 150 mM KCl, 3 mM MgCl2, 0.01% Triton X-100, 500 ug/ml BSA, 20 U/ml SUPERase-In, 4 C; UNK is unkempt and MSI1 is Musashi-1; names of the RNAs are library labels; protein concentration not given here; high values mean tight binding).

Binder | binding signal [enrichment R]
B1 | 1.18
B2 | 0.79
B3 | 0.498
B4 | 0.789
B5 | 1.18
B6 | 0.888
B7 | 1.41
B8 | 1.81
B9 | 0.531
B10 | 1.73
B11 | 1.72
B12 | 0.805
B13 | 0.746
B14 | 0.818
B15 | 1.03
B16 | 1.09
B17 | 1.67
B18 | 1.09
B19 | 0.996
B20 | 1.1
B21 | 0.769
B22 | 1.74
